From the supplement of paper PMC11417369 come the findings set out here.

± gives the standard deviation of the averaged measurements. The list shows a part of the results.

The experiment concerns PfAP2-G AP2 domain (GST-tagged). The experiment can be described thus: gcPBM binding intensity (ln(normalized median fluorescence intensity)); higher = stronger DNA binding. In short, it runs like this: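 An Agilent 4 × 180k array of primer-extended double-stranded 36-bp intergenic genomic probes, with negative controls, was incubated for 1 h with GST-tagged P. falciparum DNA-binding domains expressed in E. coli. Alexa488 anti-GST antibody detected bound protein, scanned at 488 nm. Binding intensity is the highest Masliner-normalised natural-log median intensity across replicate spots of either probe orientation.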
Regarding “CGTATGCGTATATACACACCCACGTATATATATAAA [CACACA_site3200]”, the “gcPBM binding intensity (ln)” value stood at 10.4 ± 0.28.

As for “ATAGCCAAAAATCATGCACACCTAAAAAAAAAAAAA [CACACA_site8826]”, the “gcPBM binding intensity (ln)” value was 10.1 ± 0.6. Consider “TATATTTATGTATATGTGCACATAAATTTAAGAATG [GTGCAC_site9512]”, for which the “gcPBM binding intensity (ln)” value was 10.5 ± 0.33. With “AAGAGAGACATCAACACACATACGTATGTATAGAAA [CACACA_site1397]”, the “gcPBM binding intensity (ln)” value was found to be 10.12 ± 0.021. As for “TTTTTTATTGTGATACGTATATTATTTTATGATTAA [GTGCAC_negctrl_site202]”, the figure is 10.6 ± 0.35; as for “GTATATATATTTGTACGTACATATTGTTGTAAACAC [XGTACX_site8833]”, 11.7 ± 0.71; as for “TTCATTTTAATAATATGTACATAATATATTTAAAAA [XGTACX_site634]”, 11.3 ± 0.92.

For the sequence “TTAAGTCATAAATAAAGTACATAAATATAATATATA [XGTACX_site6304]”, the “gcPBM binding intensity (ln)” value was 11.2 ± 0.86. Take “ATGTAAATGTTATTATGTACATATTTATTCTTCAAA [XGTACX_site7377]”: the “gcPBM binding intensity (ln)” value was determined as 11.1 ± 0.54.

As for “TCCAATTAAATATATGAACACACATGTGAACTTTCT [CACACA_site9318]”, the “gcPBM binding intensity (ln)” value is 9.965 ± 0.064. With “GGGGGTAGGGGAAGAAGTACAATGATCACTACAGTA [XGTACX_site1169]”, the “gcPBM binding intensity (ln)” value was determined as 11.9 ± 1.3.

With “TTTTTTATTAAAAGCGAAAAAAATGAAAACTTTTTT [GTGCAC_negctrl_site605]”, the “gcPBM binding intensity (ln)” value turned out to be 9.895 ± 0.035.

On to “TGTATATAGAAACATACACACATATTAATTTTACAT [CACACA_site3126]”, for which the “gcPBM binding intensity (ln)” value came to 9.885 ± 0.092.

With “TTTTTAATTAACTTTGTAAACTTATATATATATATA [TGCATGCA_negctrl_site311]”, the “gcPBM binding intensity (ln)” value was 9.99 ± 0.21. As for “TTAAAGCACCCATGCACACACACAAGGGAAAAGAAA [CACACA_site4289]”, the figure is 10.3 ± 0.4; as for “AAGGAATATTAAGTGGGTACTAAAAAAAAATTAATT [XGTACX_site331]”, 11.1 ± 0.76. As for GAAGTAGATGGAAAAGTGCACTGTAATGGTTATATT, the figure is 10.3 ± 0.26; as for “TTTATTGAACGTACACATATATATATGTATATATTT [TGCATGCA_negctrl_site141]”, 11.3 ± 0.88; as for “ATATTTATATGGTTTGCACACATAACAACTATGGTT [CACACA_site3631]”, 10.06 ± 0.049.

On to “ATATAACATATCAATTGTACGTATTGATAATATATA [XGTACX_site2504]”, for which the “gcPBM binding intensity (ln)” value amounted to 11.3 ± 0.98.

With “TTTTGTTTTAATTTTATTTGATTTTATTTGATTTAT [CACACA_negctrl_site692]”, the “gcPBM binding intensity (ln)” value turned out to be 9.595 ± 0.007.

Turning to “AGGCACACAAACATATGTACACATATATATATATAT [XGTACX_site4723]”, the “gcPBM binding intensity (ln)” value came to 11.4 ± 0.95. Consider “TTATTTTTTTTATATATATGTATAAATATATATATA [XGTACX_negctrl_site441]”, for which the “gcPBM binding intensity (ln)” value amounted to 9.85 ± 0.2. With “CCACTAATAAATATTACACACATATAGATTTATATT [CACACA_site7465]” the figure was 9.97 ± 0.13; with “TCAATCATCTTATATAGTACACATAAAAGTATTATA [XGTACX_site8513]”, 11.3 ± 0.81; with “GACAAAATGATAGGGACACACAATATCAATGTTTAA [CACACA_site765]”, 10.7 ± 0.51.

Consider AAAAAAAAAAATCCAGTGCATATATTTTTTACATAT, for which the “gcPBM binding intensity (ln)” value stood at 9.62 ± 0.22.

Consider ATTACATTAATAAGAGTGCATTATATAAGTTTTATG, for which the “gcPBM binding intensity (ln)” value is 10.03 ± 0.064.

Regarding TTTTGTTATTAGAGGGTGCTTATAATGAACTCCTAC, the “gcPBM binding intensity (ln)” value stood at 10.2 ± 0.34. With “CAAAAGGATATGCACACACACACACGGATATTTATA [CACACA_site7099]”, the “gcPBM binding intensity (ln)” value worked out at 10.2 ± 0.15. As for “CGTATATATATATACACACACATATATATATGTAAA [CACACA_site195]”, the figure is 9.99 ± 0.099; as for “TATTTCCATTCATAATTTTGTAGAATATATAACCGT [CACACA_negctrl_site1531]”, 9.93 ± 0.17. As for “AAAAACTTAATATTCACACATATATATATATATATA [CACACA_site5240]”, the figure is 9.96 ± 0.49.

As to “AAAAAAAAAAATTACACACATACATATAATAATAAT [CACACA_site2193]”, the “gcPBM binding intensity (ln)” value turned out to be 9.85 ± 0.014.

Take “TAATTTATGAGTAATACACACACTTGTGGATATATT [CACACA_site3790]”: the “gcPBM binding intensity (ln)” value is 10.1 ± 0.13. On to “TTTTATTATTAATTTCTTTTTTCTCATCACTTTCAA [XGTACX_negctrl_site117]”, for which the “gcPBM binding intensity (ln)” value amounted to 9.785 ± 0.007. As for “TTTACAAAAAATTATACACACACGTACATATAAATA [CACACA_site945]”, the figure is 11.3 ± 0.76.

Take “ATATATATAAAATATACACACATACTGTTCATTTAA [CACACA_site6149]”: the “gcPBM binding intensity (ln)” value turned out to be 9.97 ± 0.057. With “TACGTTCTAATATATACACACCTGGTATTAATTATG [CACACA_site5260]” the figure was 10.125 ± 0.007; with “GAAAAATTTTTATATGTGCACATGTTATATATAATT [GTGCAC_site9742]”, 10.6 ± 0.3.

“AAATATTATTTATTTACACACCAATCTTCTTTTCTT [CACACA_site3990]”: the “gcPBM binding intensity (ln)” value is 9.91 ± 0.11. As for “AAAGAATACAAAATTGCACACATATTGTGAAAATGT [CACACA_site9327]”, the figure is 9.96 ± 0.12; as for “TATTAACACAATAGCGCACACTTTTAATATTTTATA [CACACA_site1617]”, 10.2 ± 0.2. As for “ATATAATGTTGTAATAGTACTTTTTTCATATAAATA [XGTACX_site2666]”, the figure is 11.1 ± 0.66; as for “CTTAAATTGAAATGTTGTACAAAGTAAAAACAATGA [XGTACX_site2123]”, 11.2 ± 0.86.
